{"source": "paper PMC9911399", "about": "“Two distinct binding modes provide the RNA-binding protein RbFox with extraordinary sequence specificity”", "binders": {"B1": {"name": "GUCUACU (DNA:RNA)", "RNA": "GGGAGACCGGAAUUCAGAUUGUCCGUCUACUUUAAAUCCCGUCGUAGCCACCA", "DNA 1": "CAATCTGAATTCCGGTCTCCC", "DNA 2": "TGGTGGCTACGACGGGATT"}, "B2": {"name": "GGCGUGU (DNA:RNA)", "RNA": "B1 RNA with U26G, U28G, A29U, C30G", "DNA 1": "CAATCTGAATTCCGGTCTCCC", "DNA 2": "TGGTGGCTACGACGGGATT"}, "B3": {"name": "UGCUAUU (DNA:RNA)", "RNA": "B1 RNA with G25U, U26G, C30U", "DNA 1": "CAATCTGAATTCCGGTCTCCC", "DNA 2": "TGGTGGCTACGACGGGATT"}, "B4": {"name": "GUUCUCG (DNA:RNA)", "RNA": "B1 RNA with C27U, U28C, A29U, U31G", "DNA 1": "CAATCTGAATTCCGGTCTCCC", "DNA 2": "TGGTGGCTACGACGGGATT"}, "B5": {"name": "UAAUUUA (DNA:RNA)", "RNA": "B1 RNA with G25U, U26A, C27A, A29U, C30U, U31A", "DNA 1": "CAATCTGAATTCCGGTCTCCC", "DNA 2": "TGGTGGCTACGACGGGATT"}, "B6": {"name": "GCCCUCG (DNA:RNA)", "RNA": "B1 RNA with U26C, U28C, A29U, U31G", "DNA 1": "CAATCTGAATTCCGGTCTCCC", "DNA 2": "TGGTGGCTACGACGGGATT"}, "B7": {"name": "GUGCAGG (DNA:RNA)", "RNA": "B1 RNA with C27G, U28C, C30G, U31G", "DNA 1": "CAATCTGAATTCCGGTCTCCC", "DNA 2": "TGGTGGCTACGACGGGATT"}, "B8": {"name": "AUGUAAU (DNA:RNA)", "RNA": "B1 RNA with G25A, C27G, C30A", "DNA 1": "CAATCTGAATTCCGGTCTCCC", "DNA 2": "TGGTGGCTACGACGGGATT"}, "B9": {"name": "UUGUCAA (DNA:RNA)", "RNA": "B1 RNA with G25U, C27G, A29C, C30A, U31A", "DNA 1": "CAATCTGAATTCCGGTCTCCC", "DNA 2": "TGGTGGCTACGACGGGATT"}, "B10": {"name": "AACAGUG (DNA:RNA)", "RNA": "B1 RNA with G25A, U26A, U28A, A29G, C30U, U31G", "DNA 1": "CAATCTGAATTCCGGTCTCCC", "DNA 2": "TGGTGGCTACGACGGGATT"}, "B11": {"name": "CCGAGCU (DNA:RNA)", "RNA": "B1 RNA with G25C, U26C, C27G, U28A, A29G", "DNA 1": "CAATCTGAATTCCGGTCTCCC", "DNA 2": "TGGTGGCTACGACGGGATT"}, "B12": {"name": "GGCCACU (DNA:RNA)", "RNA": "B1 RNA with U26G, U28C", "DNA 1": "CAATCTGAATTCCGGTCTCCC", "DNA 2": "TGGTGGCTACGACGGGATT"}, "B13": {"name": "AUGGCGC (DNA:RNA)", "RNA": "B1 RNA with G25A, C27G, U28G, A29C, C30G, U31C", "DNA 1": "CAATCTGAATTCCGGTCTCCC", "DNA 2": "TGGTGGCTACGACGGGATT"}, "B14": {"name": "GUCUAAA (DNA:RNA)", "RNA": "B1 RNA with C30A, U31A", "DNA 1": "CAATCTGAATTCCGGTCTCCC", "DNA 2": "TGGTGGCTACGACGGGATT"}, "B15": {"name": "CAGGAUA (DNA:RNA)", "RNA": "B1 RNA with G25C, U26A, C27G, U28G, C30U, U31A", "DNA 1": "CAATCTGAATTCCGGTCTCCC", "DNA 2": "TGGTGGCTACGACGGGATT"}, "B16": {"name": "UGUUAGA (DNA:RNA)", "RNA": "B1 RNA with G25U, U26G, C27U, C30G, U31A", "DNA 1": "CAATCTGAATTCCGGTCTCCC", "DNA 2": "TGGTGGCTACGACGGGATT"}, "B17": {"name": "CUGCGAG (DNA:RNA)", "RNA": "B1 RNA with G25C, C27G, U28C, A29G, C30A, U31G", "DNA 1": "CAATCTGAATTCCGGTCTCCC", "DNA 2": "TGGTGGCTACGACGGGATT"}, "B18": {"name": "GCCAGCG (DNA:RNA)", "RNA": "B1 RNA with U26C, U28A, A29G, U31G", "DNA 1": "CAATCTGAATTCCGGTCTCCC", "DNA 2": "TGGTGGCTACGACGGGATT"}, "B19": {"name": "UGCCGGU (DNA:RNA)", "RNA": "B1 RNA with G25U, U26G, U28C, A29G, C30G", "DNA 1": "CAATCTGAATTCCGGTCTCCC", "DNA 2": "TGGTGGCTACGACGGGATT"}, "B20": {"name": "AUAGGGC (DNA:RNA)", "RNA": "B1 RNA with G25A, C27A, U28G, A29G, C30G, U31C", "DNA 1": "CAATCTGAATTCCGGTCTCCC", "DNA 2": "TGGTGGCTACGACGGGATT"}, "B21": {"name": "GUCGCAA (DNA:RNA)", "RNA": "B1 RNA with U28G, A29C, C30A, U31A", "DNA 1": "CAATCTGAATTCCGGTCTCCC", "DNA 2": "TGGTGGCTACGACGGGATT"}, "B22": {"name": "AGUAACA (DNA:RNA)", "RNA": "B1 RNA with G25A, U26G, C27U, U28A, U31A", "DNA 1": "CAATCTGAATTCCGGTCTCCC", "DNA 2": "TGGTGGCTACGACGGGATT"}, "B23": {"name": "GUCGGGC (DNA:RNA)", "RNA": "B1 RNA with U28G, A29G, C30G, U31C", "DNA 1": "CAATCTGAATTCCGGTCTCCC", "DNA 2": "TGGTGGCTACGACGGGATT"}, "B24": {"name": "CUUGACG (DNA:RNA)", "RNA": "B1 RNA with G25C, C27U, U28G, U31G", "DNA 1": "CAATCTGAATTCCGGTCTCCC", "DNA 2": "TGGTGGCTACGACGGGATT"}, "B25": {"name": "CGACGGG (DNA:RNA)", "RNA": "GGGAGACCGGAAUUCAGAUUGUCCCGACGGGUUAAAUCCCGUCGUAGCCACCA", "DNA 1": "CAATCTGAATTCCGGTCTCCC", "DNA 2": "TGGTGGCTACGACGGGATT"}, "B26": {"name": "GACGUAG (DNA:RNA)", "RNA": "B1 RNA with U26A, U28G, A29U, C30A, U31G", "DNA 1": "CAATCTGAATTCCGGTCTCCC", "DNA 2": "TGGTGGCTACGACGGGATT"}, "B27": {"name": "AGGAACC (DNA:RNA)", "RNA": "B1 RNA with G25A, U26G, C27G, U28A, U31C", "DNA 1": "CAATCTGAATTCCGGTCTCCC", "DNA 2": "TGGTGGCTACGACGGGATT"}, "B28": {"name": "GCUUUUG (DNA:RNA)", "RNA": "B1 RNA with U26C, C27U, A29U, C30U, U31G", "DNA 1": "CAATCTGAATTCCGGTCTCCC", "DNA 2": "TGGTGGCTACGACGGGATT"}, "B29": {"name": "UCAGAUA (DNA:RNA)", "RNA": "B25 RNA with C25U, G26C, C28G, G29A, G30U, G31A", "DNA 1": "CAATCTGAATTCCGGTCTCCC", "DNA 2": "TGGTGGCTACGACGGGATT"}, "B30": {"name": "CAUACAC (DNA:RNA)", "RNA": "B25 RNA with G26A, A27U, C28A, G29C, G30A, G31C", "DNA 1": "CAATCTGAATTCCGGTCTCCC", "DNA 2": "TGGTGGCTACGACGGGATT"}, "B31": {"name": "CAUAGAU (DNA:RNA)", "RNA": "B25 RNA with G26A, A27U, C28A, G30A, G31U", "DNA 1": "CAATCTGAATTCCGGTCTCCC", "DNA 2": "TGGTGGCTACGACGGGATT"}}, "note": "Residue numbers refer to the chain shown, from its start. The list shows a part of the results.", "data": [{"target": "T1, RBFOX1 RRM RbFoxmut (Fox-RRM*) (Homo sapiens, UniProt Q9NWB1 109-208, R118D;E147R;N151S;E152T)", "T1 sequence": "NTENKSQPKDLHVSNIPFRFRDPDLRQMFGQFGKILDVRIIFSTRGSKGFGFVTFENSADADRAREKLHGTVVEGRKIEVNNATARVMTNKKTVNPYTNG", "test": "EMSA; HiTS-Eq, 1 nM pool, 10 min; buffer printed only for the single-RNA assays: 10 mM Tris pH 7.5, 150 mM NaCl, 3.4 mM EDTA, 0.001% NP-40, 30 C", "conditions": "tags: His6 N-terminal (pET28a); label: 5' 32P", "in_short": "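These values rest on relative association constants, computed from read-count changes of each RNA species versus the control reaction and normalised to the cognate motif. Reads came from free RNA recovered by 8% native PAGE after purified RbFox RRM (wild type or mutant) at increasing concentrations was equilibrated for 10 min in 50 µL with 1 nM of a 5′-radiolabelled pool with 7 randomized nucleotides and DNA-annealed flanks.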", "values": [{"binder": "B1", "binding signal": "0.0784 KA relative to UGCAUGU"}, {"binder": "B2", "binding signal": "0.208 KA relative to UGCAUGU"}, {"binder": "B3", "binding signal": "0.0929 KA relative to UGCAUGU"}, {"binder": "B4", "binding signal": "0.0978 KA relative to UGCAUGU"}, {"binder": "B5", "binding signal": "0.0583 KA relative to UGCAUGU"}, {"binder": "B6", "binding signal": "0.101 KA relative to UGCAUGU"}, {"binder": "B7", "binding signal": "0.107 KA relative to UGCAUGU"}, {"binder": "B8", "binding signal": "0.115 KA relative to UGCAUGU"}, {"binder": "B9", "binding signal": "0.0912 KA relative to UGCAUGU"}, {"binder": "B10", "binding signal": "0.0616 KA relative to UGCAUGU"}, {"binder": "B11", "binding signal": "0.108 KA relative to UGCAUGU"}, {"binder": "B12", "binding signal": "0.0527 KA relative to UGCAUGU"}, {"binder": "B13", "binding signal": "0.112 KA relative to UGCAUGU"}, {"binder": "B14", "binding signal": "0.111 KA relative to UGCAUGU"}, {"binder": "B15", "binding signal": "0.0992 KA relative to UGCAUGU"}, {"binder": "B16", "binding signal": "0.118 KA relative to UGCAUGU"}, {"binder": "B17", "binding signal": "0.134 KA relative to UGCAUGU"}, {"binder": "B18", "binding signal": "0.123 KA relative to UGCAUGU"}, {"binder": "B19", "binding signal": "0.0872 KA relative to UGCAUGU"}, {"binder": "B20", "binding signal": "0.0911 KA relative to UGCAUGU"}, {"binder": "B21", "binding signal": "0.0857 KA relative to UGCAUGU"}, {"binder": "B22", "binding signal": "0.106 KA relative to UGCAUGU"}, {"binder": "B23", "binding signal": "0.0929 KA relative to UGCAUGU"}, {"binder": "B24", "binding signal": "0.107 KA relative to UGCAUGU"}, {"binder": "B25", "binding signal": "0.0682 KA relative to UGCAUGU"}, {"binder": "B26", "binding signal": "0.0961 KA relative to UGCAUGU"}, {"binder": "B27", "binding signal": "0.13 KA relative to UGCAUGU"}, {"binder": "B28", "binding signal": "0.0974 KA relative to UGCAUGU"}, {"binder": "B29", "binding signal": "0.111 KA relative to UGCAUGU"}, {"binder": "B30", "binding signal": "0.0927 KA relative to UGCAUGU"}, {"binder": "B31", "binding signal": "0.0971 KA relative to UGCAUGU"}]}]}
